The subject of the assay is HRV type 1A. Nature of the assay: Inhibition of viral cytopathic effect (CPE), HRV type 1A in MRC-5 cells. The format is cell-based. To be noted: Human rhinovirus sp., HRV1A, MRC5, Table 7, MRC-5 cells infected with HRV type 1A. For orientation: Damage to the host cells serves as the signal in cytopathic effect assays.

Molecules are shown by their SMILES. In brackets after ≈: the same amount, converted by molar mass.

Usually IC50 stands for the concentration needed to halve the response being measured. Low readings indicate greater potency in that assay, high ones weaker potency in that assay. Consider `CSc1nc2ccc(OCCC3CCN(c4ccc(C)nn4)CC3)cc2o1` [Compound 4, 6-{2-[1-(6-Methyl-3-pyridazinyl)-4-piperidinyl]ethoxy}-2-methylthiobenzoxazole], for which the IC50 amounted to 6 ng/mL (≈ 0.0156 µM).

Source of the values: patent US9303026B2, “Antiviral agents” (Biota Scientific Management Pty Ltd, priority 2000, dated 2016).
